According to PubChem BioAssay AID504706 (National Center for Advancing Translational Sciences (NCATS), 2011):
Screen size: about 320,000 compounds; about 200 (0.062%) were called active. Inconclusive results, whose numbers are uncertain, are shown with a selection of clear calls. Calls come from the whole dose curve; as a rule, active = well fitted activation curve with a large enough effect; inconclusive = small, poorly fitted or top-dose-only effect; inactive = no such curve, though single readings can be large or run the other way. Potencies of inconclusive entries are left out as doubtful fits.

Assay: qHTS assay for re-activators of p53 using a Luc reporter; note: nearly all actives have a fitted effect of over 45% in size
Settings: H1299 p53-A138V BP100-luciferase reporter, luminescence, 24 h; series mostly up to 92.2 µM
How it was run: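 p53-null H1299 cells stably carrying temperature-sensitive p53-A138V and a BP100-luciferase reporter were pinned with compounds (4-point, 1:5 series) and held 24 hrs at 37 deg C. Luminescence was read 10 min after detection reagent.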
Potency is the fitted concentration of half-maximal effect; tags give direction and shape of the fitted curve.

Row | Structure (SMILES) | Potency
1 | O=C(N/N=C/C(Br)=C/c1ccccc1)C1CC1 | inconclusive [activator, single point]
2 | O=C(N=C1SCC(=O)N1c1ccccc1Cl)c1ccco1 | inconclusive [activator, partial curve, poor fit]
3 | NNc1nc(-c2ccccc2Cl)nc2sc3c(c12)CCCC3 | inconclusive [activator, partial curve, poor fit]
4 | Cc1ccc(NC(=O)c2noc3c2CCCCC3)cc1 | inconclusive [activator, partial curve, poor fit]
5 | Cc1ccc(NC(=O)c2ccc(Cl)cc2Cl)cc1O | inactive
6 | O=C(Nc1ccccc1Cl)c1cc2ccccc2o/c1=N\O | inconclusive [activator, full curve, poor fit]
7 | C#CCOCCOCCOCCNc1nc(N2CCN(C(=O)CCCCCCCCCCNC(=O)Cn3cc(C[C@@H](C)O)nn3)CC2)nc(N2CCN(C(=O)CCCCCCCCCCNC(=O)Cn3cc(C[C@@H](C)O)nn3)CC2)n1 | inconclusive [activator, partial curve]
8 | O=C(Nc1nc2ccccc2[nH]1)C1CCCO1 (stereo unspecified) | inconclusive [activator, full curve, poor fit]
9 | CCc1cc(C(=O)NNC(=S)NCC2CCCO2)cs1 (stereo unspecified) | inactive
10 | C=CCNC(=O)C1CC(c2cccc(OC)c2)=NO1 (stereo unspecified) | inconclusive [activator, single point]
11 | CCN(CC)CCN1C(=O)C(=O)/C(=C(/O)c2ccc(OC)cc2)C1c1cccs1 (stereo unspecified) | inconclusive [activator, partial curve, poor fit]
12 | CC1CCc2sc(C(=O)N3CCC(C(N)=O)CC3)cc2C1 (stereo unspecified) | inconclusive [activator, partial curve, poor fit]
13 | Cc1ccc(NC(=O)C2CCCN2S(=O)(=O)c2ccc3c(c2)CCC(=O)N3)cc1Cl (stereo unspecified) | inconclusive [activator, partial curve, poor fit]
14 | O=C(Nc1ccccn1)C1CCN(S(=O)(=O)c2ccc3c(c2)OCCO3)CC1 | inconclusive [activator, partial curve, poor fit]
15 | COc1ccc(NC(=O)CCSc2ccc3ccccc3n2)cc1 | inactive
16 | O=c1c2ccccc2nnn1CSc1nnc(-c2ccc3c(c2)OCO3)o1 | inconclusive [activator, partial curve, poor fit]
17 | COc1cccc(Nc2nc3ccccc3n2C(C)C)c1 | inactive
18 | O=C(NNC(=O)c1ccccc1OCc1ccc(F)cc1)c1ccccc1O | inconclusive [activator, partial curve, poor fit]
19 | CCc1ccc(OCC(=O)NC(=S)Nc2ccc(F)cc2)c(Br)c1 | inactive
20 | C=CCOc1ccc(/C(O)=C2/C(=O)C(=O)N(CCCn3ccnc3)C2c2cccs2)cc1 (stereo unspecified) | inconclusive [activator, partial curve, poor fit]
21 | Fc1ccc2nc(Nc3ccccc3)sc2c1 | inconclusive [activator, single point]
22 | CC(C)C(=O)Nc1cccc(NC(=O)c2cc3ccccc3o2)c1 | inconclusive [activator, single point]

Row | Structure (SMILES) | Potency
23 | O=C(CNC(=O)c1ccco1)Nc1ccc(Cl)cc1 | inconclusive [activator, full curve, poor fit]
24 | O=C(Cc1ccc(F)cc1)NC1CCCCCC1 | inconclusive [activator, single point]
25 | S=C(NCc1ccccc1)Nc1cccc(Cl)c1 | inconclusive [activator, partial curve, poor fit]
26 | CCC(Sc1ncnc2c1nnn2-c1ccc(F)cc1)C(=O)OC (stereo unspecified) | inconclusive [activator, partial curve, poor fit]
27 | O=C(/C=C/c1ccc(F)cc1)OCC(=O)c1ccc[nH]1 | inconclusive [activator, partial curve, poor fit]
28 | CC(C)(C)c1ccc(/C=C2\SC(=O)N(CCNC(=O)c3cccc(S(=O)(=O)N4CCOCC4)c3)C2=O)cc1 | inconclusive [activator, partial curve, poor fit]
29 | Cc1ccc(Cn2ccc(NC(=O)CCSc3nc(-c4ccco4)cc(C(F)(F)F)n3)n2)cc1 | inactive
30 | CC(C)c1cc(C(=O)NNC(=S)NC2CCCCC2)cs1 | inconclusive [activator, full curve, poor fit]
31 | CC1CCCC(NC(=O)COC(=O)c2cc3ccccc3oc2=O)C1C (stereo unspecified) | inconclusive [activator, partial curve, poor fit]
32 | COc1ccc(/C=N/Nc2nc(Nc3ccccc3)nc(N3CCCCC3)n2)cc1OC | inactive
33 | CC(=O)N1CCN(CC(=O)Nc2ccccc2Sc2ccc(Cl)cc2)CC1 | inactive
34 | COc1ccc(-c2nc3ccc([N+](=O)[O-])cc3o2)cc1 | inconclusive [activator, partial curve, poor fit]
35 | O=C(CC1C(=O)NCCN1Cc1ccccc1C(F)(F)F)NCCN1CCCCC1=O (stereo unspecified) | inactive
36 | COc1ccc(C(=O)/C=C/c2cn(CN3CCN(C)CC3)c3ccccc23)cc1 | inconclusive [activator, partial curve, poor fit]
37 | COc1cccc(OCC(=O)O/N=C(\N)c2ccncc2)c1 | inconclusive [activator, single point]
38 | O=c1c2ccccc2ncn1CCCOc1ccccc1[N+](=O)[O-] | inconclusive [activator, partial curve, poor fit]
39 | C=CCNC(=S)N/N=C(\C)c1cccc(OC)c1 | inactive
40 | CC(=O)Nc1ccc(NC(=O)/C(Cl)=C/c2ccccc2)cc1 | inconclusive [activator, partial curve, poor fit]
41 | COc1ccc(S(=O)(=O)N2CCC(C(=O)NCc3ccco3)CC2)cc1 | inconclusive [activator, single point]
42 | CCc1nnc(NC(=O)CSc2nnc3c(C)cc4c(C)ccc(C)c4n23)s1 | inactive
43 | C[C@@H]1C(=O)O[C@H]2[C@H]1CC[C@@]1(C)C(=O)C=C[C@@](C)(O)[C@H]21 | inconclusive [activator, partial curve, poor fit]
44 | C/C(=N\O)C(C)(C)NC(=O)Nc1ccc(Cl)cc1 | inconclusive [activator, single point]

Row | Structure (SMILES) | Potency
45 | O=C(N/N=C/c1ccc(Sc2ccccn2)o1)c1cc2ccccc2cc1O | inconclusive [activator, single point]
46 | O=C(Nc1cccc(F)c1)c1ccc(Br)o1 | inconclusive [activator, partial curve, poor fit]
47 | C=CCOc1ccc(/C=C(\C#N)C(=O)Nc2ccccn2)cc1 | inconclusive [activator, single point]
48 | Cc1cc(NCc2ccccc2)nc(-c2ccccc2O)n1 | inconclusive [activator, partial curve, poor fit]
49 | CCN1CCN(c2ccc(S(=O)(=O)N3CCCCC3)cc2NC(=O)c2ccc([N+](=O)[O-])s2)CC1 | inactive
50 | NC(=S)Nc1cccc2cc3ccccc3cc12 | inconclusive [activator, partial curve, poor fit]
51 | CC1CCCN(CCCNS(=O)(=O)c2ccc3c(c2)CCN3C(=O)C2CC2)C1 (stereo unspecified) | inconclusive [activator, single point]
52 | O=C1OC[C@@H]2CCCN2C(=O)[C@H](CC(=O)N(CCO)Cc2ccccc2)C/C=C\CC[C@@H]1Cc1ccc(F)cc1 | inactive
53 | CCNC(=O)/C(C#N)=C/c1c(N2CCN(c3ccccc3)CC2)nc2ccccn2c1=O | inactive
54 | COc1ccccc1CN1C(=O)c2cccc3cccc(c23)C1=O | inactive
55 | COc1ccccc1N1C(=O)S/C(=C\c2ccc(C)s2)C1=O | inconclusive [activator, single point]
56 | CCCCc1nnc(NC(=O)c2oc3ccccc3c2C)s1 | inconclusive [activator, single point]
57 | CC1CCN(CCCNC(=O)C2CCC(CNS(=O)(=O)c3ccccc3)CC2)CC1 (stereo unspecified) | inconclusive [activator, single point]
58 | COc1ccc(N2CCN(c3ncccn3)CC2)cc1 | inconclusive [activator, partial curve, poor fit]
59 | Cc1onc(-c2ccccc2)c1C(=O)NC(=S)NNC(=O)c1ccccc1O | inconclusive [activator, partial curve, poor fit]
60 | O=C(O)Cn1c(O)c(C=Nc2ccccc2)sc1=S | inactive
61 | CCOCCCn1cc(C(=O)c2cc(Br)ccc2O)cc(C#N)c1=O | inactive
62 | O=C(COC(=O)CCc1c[nH]c2ccccc12)Nc1ccc([N+](=O)[O-])cc1 | inactive
63 | Brc1ccsc1-c1csc(-c2ccncc2)n1 | inconclusive [activator, partial curve, poor fit]
64 | CCOC(=O)CSc1ccc(-c2nc3cc(C)c(C)cc3[nH]2)cn1 | inconclusive [activator, partial curve, poor fit]
65 | Cn1c(SCc2ccc(C#N)cc2Cl)nc2ccccc21 | inconclusive [activator, partial curve, poor fit]
66 | Cc1cccc2c1cnn2C(=O)Nc1ccccc1Cl | inconclusive [activator, full curve]
